We go through 33 molecules from the supplement of paper PMC3694890.

± gives the uncertainty stated by the source. The list shows a part of the results. A small y stands for phosphotyrosine.

The assay concerns the target GRB2 (endogenous complexes from cell lysate), P62993. The experiment in a line: GRB2 complex binding differential signal (pY peptide minus Ala control peptide) (fluorescence intensity units); higher = stronger GRB2 complex binding.
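Also: phosphopeptide probes on the chip at 1–4 µM, lysate proteins bound in 20 mM Tris pH 7.0 buffer with 140 mM NaCl, 1% Triton X-100 and 5% glycerol.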

In the case of yTRTSQ [P85B_467/A1], the “GRB2 complex binding differential signal” value is, setting by setting: (MCF7) 4530 ± 1100; (MCF10A) 3350 ± 420; (MDA-MB-231) 1150 ± 330; (T47D) -323 ± 860.
The corresponding values for yIEKFK [P85A_508/A1] are 1280 ± 1400, 997 ± 200, 436 ± 530 and 495 ± 890.
Consider yYRLFN [NTRK3_709/A1], for which the “GRB2 complex binding differential signal” value was determined as 316 ± 160 (MCF7), 176 ± 200 (MCF10A), 1080 ± 450 (MDA-MB-231) and 861 ± 1000 (T47D).
For the molecule yTAVQP [PDGFRB_1009/A1], the “GRB2 complex binding differential signal” value is, setting by setting: (MCF7) 3930 ± 800; (MCF10A) 3080 ± 1100; (MDA-MB-231) 1860 ± 680; (T47D) 2360 ± 1500.
The corresponding values for yFRQGH [NTRK3_516/A1] are 553 ± 220, 88.2 ± 310, 229 ± 280 and 184 ± 820.
The corresponding values for yVSKGS [PDGFRA_849/A1] are 1200 ± 230, 3210 ± 290, 1040 ± 670 and 2900 ± 1300.
As to yEPLDV [PA24A_535/A1], the “GRB2 complex binding differential signal” value runs as follows: (MCF7) 766 ± 1200; (MCF10A) 1440 ± 330; (MDA-MB-231) 984 ± 980; (T47D) 3050 ± 1800.
As for yRLFNP [NTRK3_710/A1], the “GRB2 complex binding differential signal” value was determined as 498 ± 410 (MCF7), 44.8 ± 170 (MCF10A), 637 ± 460 (MDA-MB-231) and 161 ± 1100 (T47D).
As for yKRKAN [OSTP_246/A1], the “GRB2 complex binding differential signal” value by setting is: (MCF7) 78.9 ± 160; (MCF10A) 15.5 ± 140; (MDA-MB-231) 913 ± 360; (T47D) 227 ± 1000.
The corresponding values for yKKKSM [PDGFRA_768/A1] are 43.9 ± 370, 205 ± 400, 547 ± 300 and 775 ± 1200.
yREIDK [P85A_556/A1]: the “GRB2 complex binding differential signal” value runs as follows: (MCF7) 1460 ± 490; (MCF10A) 1250 ± 260; (MDA-MB-231) 971 ± 330; (T47D) 913 ± 1100.
On to yIIPLP [PDGFRA_1018/A1], for which the “GRB2 complex binding differential signal” value reads like this: (MCF7) 3820 ± 3800; (MCF10A) 5570 ± 1300; (MDA-MB-231) 3990 ± 560; (T47D) 4120 ± 1200.
In the same order, the values of yMDMKQ [PDGFRA_731/A1] are 655 ± 490, 659 ± 220, 810 ± 370 and 1290 ± 1400.
Regarding yLDILG [NTRK2_817/A1], the “GRB2 complex binding differential signal” value was -107 ± 290 (MCF7), 64.5 ± 150 (MCF10A), 216 ± 310 (MDA-MB-231) and 125 ± 1200 (T47D).
For ySSLKE [P85A_688/A1], the “GRB2 complex binding differential signal” value came to 1120 ± 290 (MCF7), 1680 ± 640 (MCF10A), 822 ± 330 (MDA-MB-231) and 188 ± 930 (T47D).
For yMELGG [AT1A2_539/A1], the “GRB2 complex binding differential signal” value by setting is: (MCF7) 328 ± 360; (MCF10A) 278 ± 190; (MDA-MB-231) 352 ± 280; (T47D) 180 ± 1000.
Consider yEEYTR [P85A_467/A1], for which the “GRB2 complex binding differential signal” value was 650 ± 280 (MCF7), -142 ± 670 (MCF10A), 864 ± 410 (MDA-MB-231) and 509 ± 1000 (T47D).
In the same order, the values of yVILSF [PDGFRA_720/A1] are 238 ± 310, 98.9 ± 160, 862 ± 320 and 1650 ± 1300.
As for yQSDNQ [PA24A_456/A1], the “GRB2 complex binding differential signal” value (MCF7) stood at 1330 ± 280, the “GRB2 complex binding differential signal” value (MCF10A) turned out to be 1740 ± 330, the “GRB2 complex binding differential signal” value (MDA-MB-231) amounted to 993 ± 700 and the “GRB2 complex binding differential signal” value (T47D) stood at 1080 ± 1200.
The corresponding values for yDRPAS [PDGFRA_762/A1] are 5630 ± 1200, 4890 ± 1500, 1410 ± 380 and 1920 ± 1300.
Take yEDTIL [ALK_1604/A1]: the “GRB2 complex binding differential signal” value runs as follows: (MCF7) 278 ± 200; (MCF10A) 328 ± 210; (MDA-MB-231) 476 ± 420; (T47D) 699 ± 1000.
With yRVGGH [NTRK2_707/A1], the “GRB2 complex binding differential signal” value (MCF7) turned out to be 1380 ± 410, the “GRB2 complex binding differential signal” value (MCF10A) is 1130 ± 480, the “GRB2 complex binding differential signal” value (MDA-MB-231) came out at 286 ± 280 and the “GRB2 complex binding differential signal” value (T47D) was found to be 21.2 ± 740.
The corresponding values for yLMWLT [P85A_580/A1] are -5.51 ± 250, 13.8 ± 120, 639 ± 320 and 106 ± 860.
ySLVED [P85A_607/A1]: the “GRB2 complex binding differential signal” value (MCF7) is 346 ± 490, the “GRB2 complex binding differential signal” value (MCF10A) was determined as 259 ± 210 and the “GRB2 complex binding differential signal” value (MDA-MB-231) was determined as 759 ± 330.
As to yVPMLE [PDGFRA_742/A1], the “GRB2 complex binding differential signal” value by setting is: (MCF7) 64 ± 460; (MCF10A) 432 ± 190; (MDA-MB-231) 1030 ± 510; (T47D) 1600 ± 1000.
In the same order, the values of yFGITN [NTRK2_516/A1] are 124 ± 330, 210 ± 230, 810 ± 260 and 596 ± 740.
In the same order, the values of ySDIQR [PDGFRA_754/A1] are 1710 ± 610, 1080 ± 400, 720 ± 320 and 1790 ± 1400.
Consider yIGVTY [PDGFRA_988/A1], for which the “GRB2 complex binding differential signal” value (MCF7) was determined as 40.9 ± 310, the “GRB2 complex binding differential signal” value (MCF10A) came out at 46.4 ± 230, the “GRB2 complex binding differential signal” value (MDA-MB-231) came out at 1240 ± 350 and the “GRB2 complex binding differential signal” value (T47D) came to 4250 ± 1200.
Take yNTQFQ [P85A_452/A1]: the “GRB2 complex binding differential signal” value runs as follows: (MCF7) -1570 ± 4900; (MCF10A) 582 ± 310; (MDA-MB-231) -978 ± 3900; (T47D) 252 ± 930.
In the same order, the values of yDKLKS [P85A_530/A1] are 634 ± 190, 521 ± 530, 1070 ± 340 and 837 ± 940.
In the case of yALMED [P85B_605/A1], the “GRB2 complex binding differential signal” value came out at 219 ± 260 (MCF7), 105 ± 230 (MCF10A) and 400 ± 330 (MDA-MB-231).
yLELGG [AT1A1_542/A1]: the “GRB2 complex binding differential signal” value is -132 ± 720 (MCF7), 154 ± 230 (MCF10A), 450 ± 250 (MDA-MB-231) and 331 ± 1200 (T47D).
Turning to yFINEE [P55G_341/A1], the “GRB2 complex binding differential signal” value (MCF7) came out at 155 ± 430, the “GRB2 complex binding differential signal” value (MCF10A) was determined as 1470 ± 1400, the “GRB2 complex binding differential signal” value (MDA-MB-231) is 508 ± 350 and the “GRB2 complex binding differential signal” value (T47D) worked out at 66.5 ± 1000.
